# Measurements reported in PubChem BioAssay (Tox21).
# “And” between values parts separate entries of the source, which are not always exact repeats. Equal values may be shown once. The inconclusive results got no clear call from the source; some entries with a clear call stand among them for comparison. For part of these data: Where the call is inconclusive, the potency comes from a doubtful curve fit. Some compounds were tested as several samples or in several runs, with calls that do not always agree. The source made the active and inactive calls. Unless noted, the call rests on the fitted dose curve; in most records, active means well fitted curve in the direction sought with a large enough effect in the repeat runs; inconclusive means weak or mixed curves; inactive means no such curve, though single readings can be large; an effect the other way counts as inactive or inconclusive.
# Experiments:
# [1] = qHTS assay to identify small molecule antagonists of the androgen receptor (AR) signaling pathway - cell viability counter screen (AID 743033; further: nearly all actives have a fitted effect of over 45% in size; further: potency means the concentration at half of the fitted maximal effect; on activity change, negative = cytotoxicity: on the % scale 0 is the no-effect control and ±100 the full control effect); details: AR-bla HEK293 viability, CellTiter-Glo luminescence, 16 h; activity change, negative = cytotoxicity: at 58.5 µM (top of the series)
# [2] = qHTS assay to identify small molecule antagonists of the thyroid receptor (TR) signaling pathway - cell viability counter screen (AID 743064); details: GH3.TRE-Luc viability, CellTiter-Fluor, 24 h; activity change, negative = cytotoxic: at 70.3 µM (top of the series) unless noted; further: nearly all actives have a fitted effect of over 50% in size; further: potency means the concentration at half of the fitted maximal effect; on activity change, negative = cytotoxic: on the % scale 0 is the no-effect control and ±100 the full control effect
# How it was run: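 CellTiter-Fluor readout, 30 min at 37 °C/5% CO2, following 23.5 h incubation of GH3.TRE-Luc cells with test compound and 1 nM T3 (final).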
# [3] = qHTS assay to identify small molecule antagonists of the androgen receptor (AR) signaling pathway using the MDA cell line - cell viability counter screen (AID 743041; further: nearly all actives have a fitted effect of over 45% in size; further: potency means the concentration at half of the fitted maximal effect; on viability change, negative = cytotoxic: on the % scale 0 is the no-effect control and ±100 the full control effect); details: MDA-kb2 viability, CellTiter-Fluor, 16 h, cells co-treated with R1881 androgen agonist; viability change, negative = cytotoxic: at 70.3 µM (top of the series) unless noted
# How it was run: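 Viability read by CellTiter-Fluor fluorescence in the same wells as the antagonist screen, added after 15.5 h of a 16 h, 37C exposure. Human breast carcinoma MDA-kb2 AR-luc cells, compounds co-dosed with agonist R1881.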
# [4] = target: Androgen receptor (Homo sapiens) (UniProt P10275); test: qHTS assay to identify small molecule antagonists of the androgen receptor (AR) signaling pathway (AID 743035; active means well fitted inhibition curve with a large enough effect in the signal ratio in the repeat runs, not every such curve was filed as active; inconclusive means weak or mixed curves, or effect the other way; inactive means no such curve, though single readings can be large or run the other way; the % refers to the signal ratio; further: potency means the concentration at half of the fitted maximal effect); details: HEK293 AR-UAS-bla, R1881-stimulated, beta-lactamase FRET, 16 h; activity change, negative = inhibition: at 58.5 µM (top of the series) unless noted
# Sequence of UniProt P10275 (P10275 whole entry, looked up): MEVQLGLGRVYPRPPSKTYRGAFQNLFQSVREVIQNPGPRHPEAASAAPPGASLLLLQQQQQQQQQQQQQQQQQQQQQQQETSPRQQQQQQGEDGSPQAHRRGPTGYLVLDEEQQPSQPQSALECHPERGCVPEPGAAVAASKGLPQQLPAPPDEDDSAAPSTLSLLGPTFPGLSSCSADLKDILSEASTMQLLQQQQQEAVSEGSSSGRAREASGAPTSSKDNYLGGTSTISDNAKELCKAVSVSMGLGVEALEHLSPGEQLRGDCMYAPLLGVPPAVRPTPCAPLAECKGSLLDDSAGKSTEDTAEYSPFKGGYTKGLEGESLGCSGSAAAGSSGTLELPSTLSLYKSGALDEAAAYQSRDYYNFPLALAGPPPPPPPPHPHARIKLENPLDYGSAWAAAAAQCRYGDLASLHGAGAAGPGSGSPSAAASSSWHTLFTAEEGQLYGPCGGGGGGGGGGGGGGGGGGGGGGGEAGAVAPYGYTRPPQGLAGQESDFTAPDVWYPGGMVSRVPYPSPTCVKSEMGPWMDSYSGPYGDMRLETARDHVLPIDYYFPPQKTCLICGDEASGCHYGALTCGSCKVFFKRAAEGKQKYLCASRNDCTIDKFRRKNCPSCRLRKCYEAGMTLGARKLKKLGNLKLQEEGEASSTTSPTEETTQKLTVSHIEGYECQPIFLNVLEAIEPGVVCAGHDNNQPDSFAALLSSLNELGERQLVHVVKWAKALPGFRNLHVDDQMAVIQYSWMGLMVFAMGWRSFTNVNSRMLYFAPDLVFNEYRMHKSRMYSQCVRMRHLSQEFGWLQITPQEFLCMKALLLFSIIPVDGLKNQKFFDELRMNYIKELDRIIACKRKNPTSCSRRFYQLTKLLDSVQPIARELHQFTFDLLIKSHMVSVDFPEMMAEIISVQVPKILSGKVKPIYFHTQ
# How it was run: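 In this cell-based reporter screen, compounds were tested in concentration series against R1881-activated HEK293 cells expressing beta-lactamase under UAS control; after 16 h at 37C, FRET substrate was added and fluorescence read 2 h later.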
# [5] = target: Androgen receptor (Homo sapiens) (UniProt P10275); test: qHTS assay to identify small molecule agonists of the androgen receptor (AR) signaling pathway using the MDA cell line (AID 743040; further: on the % scale 0 is the no-effect control and ±100 the full control effect; nearly all actives have a fitted effect of over 20% in size); details: MDA-kb2 AR-luc cells, MMTV luciferase, 16 h; activity change: at 70.3 µM (top of the series), stronger effect = higher value
# How it was run: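 Luciferase agonist assay: 16 h compound exposure at 37C without CO2 in MDA-kb2 AR-luc cells, whose MMTV promoter responds to both AR and GR. Luminescence measured after 30 min room-temperature incubation with ONE-Glo.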
# Tags describe the fitted curve by direction and shape.
smiles,measurement,setting,value
CCc1cc(Cl)c(OC)c(C(=O)NC[C@@H]2CCCN2CC)c1O,Potency,[1],"inconclusive: 6.74 µM [cytotoxic, full curve]"
same,Potency,[2],"active: 23.7 µM and inconclusive: 5.07 µM [cytotoxic, partial curve] and active: 7.5 µM"
CC(=O)CCCCn1c(=O)c2c(ncn2C)n(C)c1=O,Potency,[1],"inconclusive: 0.0016 µM [cytotoxic, full curve, poor fit]"
same,Potency,[2],inactive
Cc1nc(Nc2ncc(C(=O)Nc3c(C)cccc3Cl)s2)cc(N2CCN(CCO)CC2)n1,Potency,[1],inactive
same,Potency,[3],"inconclusive: 18.8 µM [cytotoxic, partial curve]"
CC(C)Cc1ccc(C(C)C(=O)O)cc1 (stereo not drawn),Potency,[1],inactive
same,Potency,[2],"inconclusive: 33.5 µM [rising, single point]"
CCc1nc(N)nc(N)c1-c1ccc(Cl)cc1,Potency,[1],"inconclusive: 26.8 µM [cytotoxic, single point] and inconclusive: 12.5 µM [cytotoxic, full curve] and inconclusive: 30.9 µM [cytotoxic, partial curve]"
same,Potency,[2],"inconclusive: 29.8 µM [cytotoxic, single point] and active: 62.1 µM and inconclusive: 54.5 µM [cytotoxic, partial curve, poor fit]"
N[C@@H](C(=O)N[C@@H]1C(=O)N2C(C(=O)O)=C(Cl)CS[C@H]12)c1ccccc1,Potency,[1],inactive
same,Potency,[2],"inconclusive: 1.33 µM [rising, full curve, poor fit]"
CCCCCCC(CCCCCCCCCCC(=O)OCC(COC(C)=O)OC(C)=O)OC(C)=O (stereo not drawn),Potency,[1],inactive
same,Potency,[2],"inconclusive: 11.9 µM [rising, partial curve]"
COc1cc(C(=O)NC2CCCNC2)cc(OC)c1OC (stereo not drawn),Potency,[1],inactive
same,Potency,[2],"inconclusive: 0.298 µM [rising, full curve]"
CN1C(=O)N(c2ccccc2Br)Cc2cnc(Nc3ccc4c(c3)OCC(CO)O4)nc21 (stereo not drawn),Potency,[1],active: 43.6 µM
same,Potency,[3],inconclusive: 68.6 µM [cytotoxic]
same,Potency,[2],active: 54.5 µM
Cc1c(C2(c3cc(Br)c(O)c(Br)c3C)OS(=O)(=O)c3ccccc32)cc(Br)c(O)c1Br,Potency,[1],active: 16.9 µM
same,Potency,[2],active: 42 µM
C/C=C(\C)C(=O)OC/C=C(\C)CCC=C(C)C,Potency,[1],inactive
same,Potency,[2],"inconclusive: 24.3 µM [rising, single point]"
OCC(CO)(CO)CO,Potency,[1],"inconclusive: 0.0049 µM [cytotoxic, full curve, poor fit]"
same,Potency,[2],"inconclusive: 14.2 µM [rising, partial curve]"
COc1cc2[nH]c(=O)[nH]c(=O)c2cc1OC,Potency,[1],"inconclusive: 0.0032 µM [cytotoxic, full curve, poor fit]"
same,Potency,[2],inactive
CCN(CC)CCOc1ccccc1C(=O)CCc1ccccc1,Potency,[1],"inconclusive: 26.8 µM [rising, single point]"
same,Potency,[2],"inconclusive: 23.7 µM [cytotoxic, partial curve]"
CCCCCCCCCCCC(=O)OC,Potency,[1],inactive
same,Potency,[3],inactive
same,Potency,[2],inactive
CCCCCCCCCc1ccc(OCCOCCO)cc1,Potency,[1],active: 13.4 µM and active: 8.17 µM
same,Potency,[4],active: 5.35 µM and active: 4.6 µM
same,Potency,[2],active: 18.8 µM and inactive
COc1ccc2cc(S(=O)(=O)N[C@H](CC(=O)N[C@H](Cc3ccc(CN4[C@H](C)CCC[C@@H]4C)cc3)C(=O)N(C)C(C)C)c3ccc4c(c3)OCO4)ccc2c1,Potency,[1],active: 20.7 µM
same,Potency,[3],inconclusive: 64.9 µM [cytotoxic]
COc1ccc2sc(C(=O)Nc3nnn[nH]3)c(OC(C)C)c2c1,Potency,[1],active: 24.5 µM
same,Potency,[2],active: 7.66 µM
COc1ccc(OC(F)(F)F)cc1CN[C@H]1CCCN[C@H]1c1ccccc1,Potency,[1],active: 49 µM
same,Potency,[3],"inconclusive: 68.6 µM [cytotoxic, single point]"
same,Potency,[2],active: 24.3 µM
CC1CCC(C(C)CS)CC1S (stereo not drawn),Potency,[1],inactive
same,Potency,[5],inactive
CCCCCCCC/C=C\CCCCCCCC(=O)OCCOC(=O)CCCCCCC/C=C\CCCCCCCC,Potency,[1],inactive
same,Potency,[2],"inconclusive: 28.3 µM [cytotoxic, partial curve, poor fit]"
CC[C@H]1OC(=O)[C@H](C)[C@@H](O[C@H]2C[C@@](C)(OC)[C@@H](O)[C@H](C)O2)[C@H](C)[C@@H](O[C@@H]2O[C@H](C)C[C@H](N(C)C)[C@H]2O)[C@](C)(O)C[C@@H](C)C(=O)[C@H](C)[C@@H](O)[C@]1(C)O,Potency,[1],"inconclusive: 26.8 µM [cytotoxic, single point]"
same,"activity change, negative = cytotoxic",[2],inconclusive: -35.8% [cytotoxic]
